According to patent US12060334B2, “3-substituted phenazine derivatives as antimicrobial agents” (University of Florida Research Foundation, Incorporated, priority 2021, dated 2024):

Key:
J774 MΦ = assay: Alamar Blue cytotoxicity assay, J774 macrophages; conditions: read-out: J774 MΦ Cytotox. (IC50), 24-h
HeLa cells = assay: LDH release assay for HeLa cytotoxicity; conditions: read-out: HeLa Cell Cytotox. (IC50), 24-h, tested at 25, 50 and 100 μM
human red blood cells = assay: Hemolysis assay with red blood cells; conditions: human RBCs, 1 hour, 37° C.
HepG2 cells = assay: Alamar Blue cytotoxicity assay, HepG2; conditions: read-out: Hep G2 Cytotox. (IC50), 24-h
E. faecalis OG1RF = assay: MIC susceptibility assay (broth microdilution); conditions: 16 h
MRSA-1707 = assay: MIC susceptibility assay (broth microdilution); conditions: planktonic growth inhibition, 16 h, 37° C.
Mtb CDC1551 = format: cell-based, Mycobacterium tuberculosis

Structure (SMILES)	IC50 (J774 MΦ) [µM]	IC50 (HeLa cells) [µM]	% Hemolysis at 200 μM (human red blood cells) [%]	IC50 (HepG2 cells) [µM]	MIC E. faecalis OG1RF (E. faecalis OG1RF; planktonic growth inhibition, 37° C.) [µM]	MIC MRSA-1707 (MRSA-1707) [µM]	MIC (E. faecalis OG1RF; Enterococcus faecalis, OG1RF, read-out: MIC E. faecalis OG1RF) [µM]	MIC Mtb CDC1551 (Mtb CDC1551) [µM]
Oc1c(Br)c(Cl)c(Br)c2nc3c(Br)cccc3nc12 [Compound 35, 2,4,6-Tribromo-3-chlorophenazin-1-ol]	> 200	100	≤1	> 200	–	–	–	–
Oc1cccc2nc3ccccc3nc12 [48 (1-OHP), 1-Hydroxyphenaizne, reference compound]	–	–	–	–	>50	–	–	–
Oc1cc(Cl)cc2nc3ccc(I)cc3nc12 [Compound 27, 3-Chloro-8-iodophenazin-1-ol]	–	100	1.9	–	–	0.78 (≈ 0.278 µg/mL)	–	–
Oc1c(Br)c(Cl)c(Br)c2nc3ccc(Br)cc3nc12 [Compound 36, 2,4,8-Tribromo-3-chlorophenazin-1-ol]	–	–	5.1	–	–	–	0.78 (≈ 0.365 µg/mL)	–
Cc1c(Br)ccc2nc3c(O)cc(Cl)cc3nc12 [Compound 21, 7-Bromo-3-chloro-6-methylphenazin-1-ol]	> 200	> 100	≤1	> 200	–	–	–	3.27 (≈ 1.06 µg/mL)

Values after ≈ are worked out from the molar mass of the structure shown.
